According to PubChem BioAssay AID504832 (National Center for Advancing Translational Sciences (NCATS), 2011):
In all, about 310,000 compounds went through this assay and about 18,000 (5.8%) were called active. Inconclusive means that the source gave no clear call. Such entries were picked first, then a sample of the others. Calls follow the shape of the dose curve; as a rule, active = well fitted inhibition curve with a large enough effect; inconclusive = small, poorly fitted or top-dose-only effect, or another doubt; inactive = no such curve, though single readings can be large or run the other way. No potency is given beside an inconclusive call; the fits are too rough.

Assay: Primary qHTS for delayed death inhibitors of the malarial parasite plastid, 48 hour incubation
Settings: P. falciparum luciferase growth in erythrocytes; series mostly up to 28.7 µM; activity change, negative = inhibition: at the top concentration
Procedure, shortened: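 Here the parasites carry a stable luciferase gene and grow inside erythrocytes in Albumax-based RPMI medium with compound for one erythrocytic cycle. Activity is scored as loss of luminescent signal.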
% is scaled to controls: 0 for no effect and ±100 for the full control effect; potency is read from the fitted curve at half-maximal effect; tags tell the direction and shape of the fitted curve.

| SMILES | Potency | activity change, negative = inhibition |
| --- | --- | --- |
| Cc1ccc2c(c1C)NC(=O)C21N2CCCC2C(C(=O)c2ccc3ccccc3c2)C12C(=O)Nc1ccccc12 (stereo unspecified) | active: 9.28 µM | – |
| COc1ccc(OC)c(NC(=O)c2ccccc2N(Cc2ccccc2)S(C)(=O)=O)c1 | inconclusive [inhibitor, full curve, poor fit] | – |
| Clc1ccc(-c2cc(C3CCNCC3)[nH]n2)cc1 | inconclusive [inhibitor, single point] | – |
| O=C(c1cccc(Cl)c1)N1CCC(c2nc3ccccc3[nH]2)CC1 | inconclusive [inhibitor, partial curve] | – |
| Cc1ccc(O)c(NC(=O)c2cc3nc4c(c(C(F)(F)F)n3n2)CCc2ccccc2-4)c1 | inconclusive [inhibitor, single point] | – |
| CCC1=C(OC(=O)N(CC)CC)N2C(=O)OC(=NCC(=O)OC)[C@]2(Cc2ccccc2)[C@H]2C1=CC[C@H]1C(=O)N(C)C(=O)[C@H]12 | inconclusive [inhibitor, single point] | – |
| O=C(NCCCCc1ccccc1)c1cc([N+](=O)[O-])cc([N+](=O)[O-])c1 | inconclusive [inhibitor, single point] | – |
| O=C(O)C1(c2ccccc2)CCN(S(=O)(=O)c2ccc(F)c(F)c2)CC1 | – | inactive: 16.4% |
| COc1ccc(-c2csc(NC(=O)C3CCN(C(=O)c4ccc(F)cc4)CC3)n2)cc1OC | inconclusive [inhibitor, single point] | – |
| Cc1ccc(C2(O)C(=O)c3ccccc3C2=O)c(O)c1C | inconclusive [inhibitor, single point] | – |
| CC(C)[C@H](NC(=O)C1CCN(S(=O)(=O)c2ccc(F)cc2)CC1)C(=O)N1CCCCCC1 | inconclusive [inhibitor, partial curve] | – |
| Cc1ccc(COc2ccc3c(c2)OCO3)cc1 | – | inactive: 198% |
| CCN(CC)c1ccc(NC(=O)/C=C\c2ccccc2Cl)cc1 | inconclusive [inhibitor, full curve] | – |
| CCOC(=O)C(=CNc1ncccc1C)C(=O)OCC | inconclusive [inhibitor, single point] | – |
| CC(C)c1ccc(NC(=O)C(c2ccccc2)N(C)C(=O)c2cnccn2)cc1 (stereo unspecified) | inconclusive [inhibitor, single point] | – |
| Cc1ccc(C)c(S(=O)(=O)N2CCN(C(C(=O)Nc3ccc(F)cc3)c3ccccc3)CC2)c1 (stereo unspecified) | active: 13.1 µM | – |
| CCOc1ccccc1C(=O)NC1CCN(Cc2nnnn2C2CCCC2)CC1 | inconclusive [inhibitor, single point] | – |
| Cc1ccc(NC(=S)NCc2ccccc2)c(C)c1 | inconclusive [inhibitor, full curve, poor fit] | – |
| CCOc1ccc(CCN2CN(C3CCCCC3)CNC2=S)cc1OCC | inconclusive [inhibitor, single point] | – |
| O=c1c2c(nc3n1CCCCC3)-c1ccccc1CC21CCCCC1 | – | inactive: -16.6% |
| COc1ccc(-n2c(=O)c(CCC(=O)N3CCN(c4ccccc4O)CC3)nc3ccccc32)cc1 | active: 3.7 µM | – |

| SMILES | Potency | activity change, negative = inhibition |
| --- | --- | --- |
| Cc1ccsc1C(=O)C1CCCN(Cc2cc(F)ccc2-n2cccn2)C1 (stereo unspecified) | inconclusive [inhibitor, partial curve, poor fit] | – |
| CC1(C)CC(=O)C(C(C2=C(O)CC(C)(C)CC2=O)c2ccc(Br)s2)C(=O)C1 (stereo unspecified) | inconclusive [inhibitor, partial curve] | – |
| COc1ccc2cc(C(=O)C3CCCN(C(=O)CCc4ccccn4)C3)ccc2c1 (stereo unspecified) | inconclusive [inhibitor, partial curve, poor fit] | – |
| COc1ccc2[nH]c(=O)c(CN(Cc3cccs3)S(=O)(=O)c3cccc4nsnc34)cc2c1 | active: 7.38 µM | – |
| COc1ccc(S(=O)(=O)N2CCCCC2)cc1NC(=O)c1ccc(OC)c(OC)c1 | inconclusive [inhibitor, single point] | – |
| CC(=O)Nc1ccc(NC(=O)Oc2ccccc2)cc1 | – | inactive: -4.85% |
| Cc1ccc(NC(=O)CN(C)C(=O)CCCN2C(=O)c3ccccc3C2=O)cc1 | inconclusive [inhibitor, partial curve] | – |
| CCOC(=O)C1CCCN(c2cc(C)nc3cc(-c4ccc(F)cc4)nn23)C1 (stereo unspecified) | inconclusive [inhibitor, single point] | – |
| COc1ccc(CC(=O)N/N=C(\C)CC(=O)Nc2ccc(N(C)C)cc2)cc1 | inconclusive [inhibitor, partial curve, poor fit] | – |
| Fc1ccc(Nc2nc3ccccc3s2)cc1 | – | inactive: 147% |
| C#Cc1ccc([C@H]2C=C(C(=O)NCc3ccccc3)O[C@@H](OCC)[C@@H]2CCCO)cc1 | inconclusive [inhibitor, full curve] | – |
| COc1ccc(OCc2nnc(SCC(=O)c3ccccc3)o2)cc1 | – | inactive: -2.26% |
| CC(CO)NCC12CC3CC(CC(C3)C1)C2 (stereo unspecified) | inconclusive [inhibitor, partial curve, poor fit] | – |
| Cc1ccc(S(=O)(=O)N2CCN(C(=O)CC(C)n3cncn3)CC2)cc1C (stereo unspecified) | – | inactive: 9.61% |
| Cc1ccc(C)c(OCC(=O)N(C)CC(=O)Nc2ccc(Cl)c(C(F)(F)F)c2)c1 | active: 11.7 µM | – |
| COc1ccc(C(=O)N2CCCC(c3nc(-c4ccc(OC)c(OC)c4)no3)C2)c(OC)c1 (stereo unspecified) | inconclusive [inhibitor, single point] | – |
| Brc1ccc(C2=Nn3c(Cn4nnc5ccccc54)nnc3SC2)cc1 | inconclusive [inhibitor, single point] | – |
| Cn1cc(CN2CCN(Cc3ccccc3)CC2)c(-c2cccc(Cl)c2)n1 | inconclusive [inhibitor, single point] | – |
| COC(=O)c1cnn(-c2ccccc2)c1/C=N/NC(=S)Nc1ccc(Cl)cc1 | inconclusive [inhibitor, partial curve, poor fit] | – |
| O=c1n(Cc2ccc(Cl)cc2)c2sc3c(c2c2ncnn12)CCCC3 | inconclusive [inhibitor, single point] | – |
